Experimental data reported in PubChem BioAssay AID588342 (National Center for Advancing Translational Sciences (NCATS), 2011).
Values joined by “and” are separate entries in the source; they are usually repeats but may differ in a detail not shown here. Equal entries are not always repeated. Screen size: about 360,000 compounds; about 25,000 (6.9%) were called active. The inconclusive results got no clear call from the source; some entries with a clear call stand among them for comparison. Calls come from the whole dose curve; as a rule, active = well fitted inhibition curve with a large enough effect; inconclusive = small, poorly fitted or top-dose-only effect; inactive = flat fitted curve, though single readings scatter. Potencies beside an inconclusive call are fits to weak or partial responses and may not hold up.

target: Luciferin 4-monooxygenase (Photinus pyralis) (UniProt P08659); assay: qHTS profiling assay for firefly luciferase inhibitor/activator using purifed enzyme and Km concentrations of substrates (counterscreen for miR-21 project); conditions: purified FLuc, luminescence inhibition; series mostly up to 57.5 µM; note: nearly all actives have a fitted effect of over 55% in size
Summary of the method: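 Purified P. pyralis luciferase, 10 nM final, with Km-level 10 uM D-luciferin and 10 uM ATP in 50 mM Tris acetate pH 7.5, 10 mM Mg acetate, 0.01% Tween-20, 0.05% BSA; 6-point qHTS titration about 60 µM downward; luminescence read.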
Potency is the fitted concentration of half-maximal effect; tags give direction and shape of the fitted curve.

UniProt P08659, sequence (P08659 whole entry, looked up): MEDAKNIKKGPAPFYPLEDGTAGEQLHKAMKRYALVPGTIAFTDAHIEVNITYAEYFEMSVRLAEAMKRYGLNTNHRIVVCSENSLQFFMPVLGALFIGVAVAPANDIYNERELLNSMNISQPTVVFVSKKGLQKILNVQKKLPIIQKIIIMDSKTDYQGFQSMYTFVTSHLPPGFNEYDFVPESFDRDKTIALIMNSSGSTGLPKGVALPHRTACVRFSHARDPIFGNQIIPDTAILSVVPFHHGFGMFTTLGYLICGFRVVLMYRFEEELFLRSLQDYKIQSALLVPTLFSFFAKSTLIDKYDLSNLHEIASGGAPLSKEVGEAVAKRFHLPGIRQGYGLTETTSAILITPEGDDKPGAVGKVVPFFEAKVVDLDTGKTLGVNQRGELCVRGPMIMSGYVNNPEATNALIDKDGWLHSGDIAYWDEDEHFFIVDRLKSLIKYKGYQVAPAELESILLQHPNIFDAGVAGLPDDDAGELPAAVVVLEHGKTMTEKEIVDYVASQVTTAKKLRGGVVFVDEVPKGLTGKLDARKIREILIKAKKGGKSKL

Compound	Potency
N#Cc1c(-c2ccccc2)nc(-c2ccncc2)[nH]c1=O	inconclusive: 16.9 µM [inhibitor, partial curve, poor fit]
CC(C)(C)NC(=O)N1CCN(c2nc3ccc(Cl)cc3s2)CC1	inconclusive: 23.9 µM [inhibitor, single point]
COc1ccc(-n2c(C)nc3c(cnn3-c3ccc(C)c(C)c3)c2=O)cc1	inconclusive: 37.9 µM [inhibitor, partial curve, poor fit]
CCN(c1ccccc1)S(=O)(=O)c1ccc(NC(=O)c2cc(=O)c3cc(C)ccc3o2)cc1	inactive
CCN(CC)S(=O)(=O)c1cccc(C(=O)Nc2cc(C)cc(C)c2)c1	inconclusive: 13.5 µM [inhibitor, partial curve]
CCOc1ccccc1NC(=O)C1CCCN1S(=O)(=O)c1ccccc1C(F)(F)F (stereo not drawn)	inactive
COc1cc([N+](=O)[O-])cc(/C=N/N(CCC#N)C(C)=O)c1O	inconclusive: 23.9 µM [inhibitor, partial curve, poor fit]
Cc1cccnc1NC(=O)c1ccc(OCc2c(C)noc2C)cc1	inconclusive: 23.9 µM [inhibitor, partial curve, poor fit]
Cc1ccc2nc(NC(=O)C3CSC4(C)CCC(=O)N34)sc2c1 (stereo not drawn)	inconclusive: 15.1 µM [inhibitor, partial curve]
COc1ccccc1CN1CC(C(=O)N(C)Cc2ccc(C)o2)CCC1=O (stereo not drawn)	inconclusive: 37.9 µM [inhibitor, partial curve, poor fit]
Cc1ccc(SCc2cc(=O)[nH]c(SCC(=O)Nc3cc(Cl)ccc3Cl)n2)cc1	active: 26.9 µM
Cc1cc(C)c2c(n1)nn1c(C)c(CCC(=O)NCc3ccccc3Cl)c(C)nc21	inactive
Cc1csc(SC(C)C(=O)Nc2ccc3c(c2)OCCO3)n1 (stereo not drawn)	inconclusive: 37.9 µM [inhibitor, partial curve, poor fit]
N#CC1=C2SCN(c3ccc(F)cc3)CN2C(=O)CC1c1cccc(F)c1 (stereo not drawn)	inconclusive: 10.7 µM [inhibitor, partial curve]
Cc1cnc(C(=O)OCC(=O)NCc2ccccc2)cn1	inactive
O=C1/C(=C\c2ccc(O)cc2)SC(=S)N1/N=C/c1ccc(O)cc1	inconclusive: 26.9 µM [inhibitor, single point]
COC(=O)c1c(C)sc(-c2c(-c3ccc4c(c3)OCCO4)[nH]c3[nH]c(=O)[nH]c(=O)c23)c1O	inconclusive: 30.1 µM [inhibitor, partial curve, poor fit]
O=C(CSc1ccc(-c2ccccc2)nn1)NC1CCCCC1	inconclusive: 15.1 µM [inhibitor, partial curve, poor fit]
CN1CCSc2ccc(C(=O)NCc3ccccc3F)cc21	inconclusive: 23.9 µM [inhibitor, partial curve, poor fit] and inconclusive: 16.9 µM [inhibitor, partial curve]
CCOC(=O)c1ccc(NC(=O)N2CCN(c3cccc(OC)c3)CC2)cc1	inactive
O=C(OCC1CCCO1)c1ccc2c(c1)N(Cc1cccc(Cl)c1)C(=O)c1ccccc1S2(=O)=O (stereo not drawn)	inactive
S=C(Nc1cccnc1)Nc1cccc2cnccc12	inconclusive: 23.9 µM [inhibitor, partial curve, poor fit]
O=c1ccc2ccc(OCCOc3cccc(Cl)c3)cc2o1	inconclusive: 23.9 µM [inhibitor, partial curve, poor fit]

Compound	Potency
N=c1oc2ccccc2cc1-c1nc(-c2ccc(Cl)cc2)cs1	inconclusive: 7.57 µM [inhibitor, partial curve]
Cc1nc(NC(=S)NC(=O)c2cccs2)ccc1Br	active: 4.78 µM
CCCCOc1ccc(-c2nnc(N)s2)cc1	active: 7.57 µM
COc1ccc(Cc2nnc(NC(=O)c3ccc(OC)c(OC)c3)s2)cc1	inactive
Cc1cccc(NC(=O)c2c(NC(=O)c3ccccc3)sc3c2CCCC3)c1	inconclusive: 5.36 µM [inhibitor, partial curve, poor fit]
CCCS(=O)(=O)N1CCc2ccc(NC(=O)c3ccccc3Cl)cc2C1	active: 16.9 µM
O=C(N/N=C/c1ccco1)c1cc(-c2ccccc2)n[nH]1	inconclusive: 26.9 µM [inhibitor, single point]
Cc1ccc(S(=O)(=O)CNC(=S)c2ccc3ccccc3c2)cc1	inconclusive: 37.9 µM [inhibitor, partial curve, poor fit]
CCOc1ccc(NC(=O)Nc2ccccc2SC)cc1	active: 2.69 µM
NC(=O)C1CCN(c2oc(/C=C/c3ccccc3)nc2S(=O)(=O)c2ccccc2)CC1	inactive
Cc1c(C(=O)N/N=C/c2cccs2)nnn1-c1nonc1N	inconclusive: 13.5 µM [inhibitor, partial curve]
Cc1[nH]n(-c2ccccc2)c(=O)c1/C=N/N1C(=O)c2cccc3cccc(c23)C1=O	inconclusive: 37.9 µM [inhibitor, partial curve, poor fit]
O=C1CCCC(=O)C1=Cc1c[nH]c2ccccc12	inconclusive: 21.3 µM [inhibitor, partial curve]
Cc1cccc(Cn2c(SCc3ccc(C(=O)N4CCC(C)CC4)cc3)nc3ccncc32)c1	inconclusive: 26.9 µM [inhibitor, partial curve, poor fit]
Cc1ccc(CCNC(=O)c2nc(CS(=O)(=O)c3ccc(Cl)cc3)no2)cc1	inactive
CCOC(=O)c1sc(NC(=O)c2ccncc2)nc1C	active: 19 µM
O=C(O)c1ccccc1N=Nc1c(O)[nH]c2ccc([N+](=O)[O-])cc12	inconclusive: 13.5 µM [inhibitor, partial curve]
COCCNC(=O)COc1ccc(Br)cc1Cl	inconclusive: 19 µM [inhibitor, partial curve, poor fit]
Cc1ccc(C(=O)OC(C)C(=O)Nc2ccc(Cl)cn2)s1 (stereo not drawn)	inactive
c1cncc(-c2noc(C34CC5CC(CC(C5)C3)C4)n2)c1	inconclusive: 23.9 µM [inhibitor, partial curve]
Cc1ccc2c(c1)CCCN2C(=O)NC1CCCCC1	inconclusive: 37.9 µM [inhibitor, partial curve, poor fit]
CC(=O)Nc1nc2ccc(S(=O)(=O)N3CCCCC3)cc2s1	inactive
COC(=O)c1ccc(Cl)cc1NC(=O)NCc1c(-n2cccc2)sc2c1CCCC2	inactive

Compound	Potency
O=C(Nc1cccc2cccnc12)c1cccc2ccccc12	inconclusive: 21.3 µM [inhibitor, single point] and inconclusive: 37.9 µM [inhibitor, partial curve, poor fit]
CCOC(=O)c1ccc(NC(=O)c2csc3c2CCCC3)cc1	inconclusive: 10.7 µM [inhibitor, partial curve]
S=C(Nc1ccccc1)Nc1nccs1	active: 15.1 µM
CCN1CCCC1CNC(=O)c1cc(COc2ccc(C)c(C)c2)on1 (stereo not drawn)	inconclusive: 23.9 µM [inhibitor, single point]
N#Cc1c(C(F)(F)F)cc(=O)[nH]c1SCC(=O)O	inconclusive: 13.5 µM [inhibitor, partial curve]
CN1CSC2=C(C#N)C(c3cccc(OCc4ccccc4)c3)CC(=O)N2C1 (stereo not drawn)	inconclusive: 19 µM [inhibitor, partial curve, poor fit]
CCc1ccc(C(=O)COC(=O)c2cc([N+](=O)[O-])ccc2NCCO)cc1	inconclusive: 30.1 µM [inhibitor, single point]
CCOC(=O)C1C(=O)C=C(c2ccc(C)cc2)CC1c1ccccc1 (stereo not drawn)	inconclusive: 30.1 µM [inhibitor, partial curve, poor fit]
CCOC(=O)CSc1nc(-c2ccccc2)cc(C(F)(F)F)c1C#N	inactive
Cc1nn(-c2ccccc2)c(OC(=O)c2ccc(F)cc2)c1S(=O)(=O)c1ccccc1	inconclusive: 9.53 µM [inhibitor, partial curve]
CCCOC(=O)c1ccc(NC(=O)c2cnccn2)cc1	inconclusive: 13.5 µM [inhibitor, partial curve]
CC(=C/c1ccco1)/C=N/NC(=O)c1ccncc1	active: 16.9 µM
COc1cccc(NC(=O)C(=O)NCCc2csc(-c3ccc(C)cc3)n2)c1	inconclusive: 21.3 µM [inhibitor, single point]
COc1ccc(-c2c(C)n([O-])c3c([n+]2=O)CCCC3)cc1OC	inactive
COc1cc(/C=C/c2ccc3cccc(O)c3n2)cc(Br)c1OC	active: 4.78 µM
Cc1cccc(C(=O)Nc2cccc(C(=O)N3CCOCC3)c2)c1	inconclusive: 23.9 µM [inhibitor, partial curve]
CCOc1ccc(-c2nc(CSc3nnc(N)s3)cs2)cc1	active: 1.9 µM
C=Cc1ccc(CSc2nnc(C)n3c2cc2occc23)cc1	inconclusive: 15.1 µM [inhibitor, partial curve, poor fit]
CC(=O)Nc1ccc(S(=O)(=O)Nc2nc(-c3ccc(C(C)(C)C)cc3)cs2)cc1	inconclusive: 26.9 µM [inhibitor, partial curve, poor fit]
Cc1cc(N2CCN(C)CC2)nc2ccc(NC(=O)c3ccc4c(c3)OCO4)cc12	active: 13.5 µM
O=C(Nc1cc2ccc(O)cc2oc1=O)c1ccc(F)cc1	inconclusive: 2.13 µM [inhibitor, partial curve, poor fit]
Cc1ccc(NC(=O)C(=O)NCCCN2CC(C(=O)O)CC2=O)cc1 (stereo not drawn)	inconclusive: 19 µM [inhibitor, partial curve, poor fit]
